Screen size: about 50,000 compounds; about 800 (1.6%) showed an effect of 50% or more. Some of the results follow.

The target in this assay is Bcl-2-like protein 10 (Homo sapiens) (UniProt Q9HD36). The assay is described as follows: TR3 peptide-Bcl-B binding displacers, biochemical primary FP assay, phenotype converters (AID 1240).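 Note: 0% = Bcl-B with tracer peptide and DMSO and 100% = tracer peptide lacking Bcl-B.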 The following applies: GST-Bcl-B / FITC-TR3 peptide fluorescence polarization; stronger effect = higher value; compound at 3.75 mg/L.
Chain of UniProt Q9HD36 (Q9HD36 whole entry, looked up): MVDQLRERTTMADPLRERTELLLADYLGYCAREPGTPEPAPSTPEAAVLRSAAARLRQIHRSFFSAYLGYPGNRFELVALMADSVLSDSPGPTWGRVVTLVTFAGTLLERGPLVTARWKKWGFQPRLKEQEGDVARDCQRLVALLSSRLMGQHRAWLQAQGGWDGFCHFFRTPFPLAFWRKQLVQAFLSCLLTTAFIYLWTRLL
As for `COc1ccc(/C(O)=C2/C(=O)C(=O)N(c3ccccn3)C2c2cccnc2)cc1` (stereo unspecified), the displacement was -8.8%.

With `O=[N+]([O-])c1ccccc1S(=O)(=O)N1CCC(Cc2ccccc2)CC1`, the displacement stood at 1.4%.

Turning to `COc1ccc(OC(C)C(=O)Nc2ccc(S(N)(=O)=O)cc2)cc1` (stereo unspecified), the displacement is -5.3%.

Take `Cc1cc(C(=O)N2CCN(c3ccc(F)cc3)CC2)ccc1[N+](=O)[O-]`: the displacement turned out to be 5.1%.

Consider `O=C1C2C3c4ccccc4C(c4ccccc43)C2C(=O)N1Cc1ccco1` (stereo unspecified), for which the displacement was -6.5%.

For `O=C1/C(=C/c2cccc(Br)c2)SC(=S)N1CC(=O)N(CCO)c1ccccc1`, the displacement is 11.4%.

In the case of `CC(=O)c1c(C)nc(C)c(C(C)=O)c1-c1ccccc1`, the displacement is -2.9%.

For `O=C(Nc1nnc(COc2ccc(Cl)cc2)s1)c1ccccc1F`, the displacement came out at 10.8%.

As for `O=C1c2ccc(S(=O)(=O)c3ccc4c(c3)C(=O)N(CCCO)C4=O)cc2C(=O)N1CCCO`, the displacement is 6.1%.

With `CS(=O)(=O)N(CC(=O)Nc1cccc(Cl)c1)c1ccc(Br)cc1`, the displacement was 1.7%.

As to `Nc1nc(O/N=C/c2ccc([N+](=O)[O-])cc2)nc(N2CCOCC2)n1`, the displacement was -0.6%.

Regarding `O=C(O)COc1ccc2ccc(=O)oc2c1`, the displacement was found to be 12.8%.

`CN1C(=O)/C(=N\OC(=O)c2cccc3ccccc23)c2ccccc21`: the displacement stood at 11%.

Regarding `CCOc1ccc(-c2csc(/C(C#N)=C/c3ccc(C)o3)n2)cc1`, the displacement is -27.9%.

For the molecule `O=C1N=c2ccccc2=C1c1s/c(=N/N=C2/C(=O)Nc3ccccc32)n(-c2ccc(O)cc2)c1O`, the displacement came out at 12.6%.

Turning to `COc1ccccc1C(=O)Oc1ccc2c(c1)C(C)=CC(C)(C)N2`, the displacement is -2.1%.

Consider `Cc1ccc(OC2=NS(=O)(=O)c3ccccc32)cc1`, for which the displacement was -4.7%.

With `Cc1cc2ncn(C(=O)c3cc([N+](=O)[O-])ccc3Cl)c2cc1C`, the displacement came out at 8.5%.

For `Cc1cccc(N2C(=O)/C(=C/c3cccc([N+](=O)[O-])c3)SC2=S)c1C`, the displacement worked out at 10%.

In the case of `Cc1ccc2nc(NC(=O)C3CC=CCC3C(=O)O)sc2c1` (stereo unspecified), the displacement was found to be 1.8%.

Regarding `O=C(CSc1nc2ccc(Br)cc2c(=O)n1-c1ccccc1)Nc1ccccc1[N+](=O)[O-]`, the displacement came out at 10.1%.

With `COc1ccc(/C=C/C(=O)NC(=S)Nc2ccccc2O)cc1`, the displacement is 11.7%.

Consider `COc1ccc(C2=C/C(=C\c3ccc([N+](=O)[O-])cc3)C(=O)O2)cc1`, for which the displacement was -4.5%.

Consider `COc1ccc(NC(=O)c2nn3c(c2Cl)NC(c2cccs2)CC3C(F)(F)F)cc1OC` (stereo unspecified), for which the displacement was -1.3%.

With `CC(C)C(Nc1nc2ncn(Cc3ccccc3)c2c(=O)[nH]1)C(=O)O` (stereo unspecified), the displacement worked out at 6.2%.

With `COc1ccc(OCC(=O)Nc2cc(-c3nc4ccccc4o3)ccc2C)cc1`, the displacement amounted to 13.9%.

Consider `O=C(O)CCCN1C(=O)C(=O)/C(=C(/O)c2ccccc2)C1c1ccccc1[N+](=O)[O-]` (stereo unspecified), for which the displacement worked out at 15.8%.

Regarding `COc1cc(/C=C2/SC(=S)N(c3ccccc3)C2=O)ccc1OC(=O)c1ccc(F)cc1`, the displacement amounted to 4.7%.

As to `Cc1ccc2nc3c(N)c(Cl)cc4c3c(c2c1)-c1ccccc1C4=O`, the displacement came out at 18.8%.

`COc1ccc(OC)c(N(CC(=O)NCCc2ccccc2)S(C)(=O)=O)c1`: the displacement was determined as 11.4%.

Turning to `C/C(=N\N=C\c1ccccc1)C1C(=O)c2ccccc2C1=O`, the displacement is 14.8%.

For `O=C(c1ccc(F)cc1)c1ccc2c(c1)CCCO2`, the displacement was -0.6%.

`CC1C(=NO)C(C)C(c2ccc(Cl)cc2)NC1c1ccc(Cl)cc1` (stereo unspecified): the displacement was -19.4%.

As for `CCOC(=O)C1=C(O)/C(=C/c2ccc(Cl)cc2)SC1=Nc1ccc(C)cc1`, the displacement stood at 5.9%.

For the molecule `Clc1ccccc1-c1nnc(-c2ccccc2Br)o1`, the displacement came out at 9.7%.

On to `COc1ccccc1C(=O)Nc1ccc2oc(-c3cccc(C)c3)nc2c1`, for which the displacement is 1.6%.

In the case of `CCOc1ccc(C(=O)N2CCN(c3ccc([N+](=O)[O-])cc3)CC2)cc1Cl`, the displacement turned out to be 13.9%.

In the case of `COc1ccc(N2C(=O)/C(=C/c3ccc(OCc4ccc(F)cc4)c(OC)c3)C(=O)NC2=S)cc1`, the displacement is -3.3%.

As to `O=C(O)CN1C(c2ccccc2O)Nc2ccc(Br)cc2C1c1ccccc1` (stereo unspecified), the displacement was 16.2%.

`Cc1sc(NC(=O)CCCC(=O)O)nc1-c1ccccc1`: the displacement turned out to be 2.5%.

As to `O=C(O)CCCCCN1C(=O)C(=O)/C(=C(/O)c2ccc(F)cc2)C1c1ccc([N+](=O)[O-])cc1` (stereo unspecified), the displacement came out at 1.3%.

Regarding `Cc1ccc(Cl)cc1NC1=CC(=O)CC(C)(C)C1`, the displacement came out at 11.6%.

For the molecule `COc1cccc(N2C(=O)CC(Sc3nc4ccccc4s3)C2=O)c1` (stereo unspecified), the displacement came to 8.8%.

For `COC(=O)c1c(C)oc2ccc(OCc3cccc(Cl)c3)cc12`, the displacement came to 3%.

Consider `NC(=O)c1cc(S(=O)(=O)N2CCOCC2)ccc1Cl`, for which the displacement is -4.1%.

As to `COc1ccc2ccccc2c1/C=N/NC(=O)c1cccc(Br)c1`, the displacement is -9%.

With `CCOC(=O)C(=C/C=C/c1ccccc1)C(=O)OCC`, the displacement was -2.3%.

Turning to `CCOC(=O)c1c(C)oc2ccc(OC(=O)c3ccc(C)cc3)cc12`, the displacement is 8.9%.

Regarding `CN(C)CCN1C(=O)C(=O)/C(=C(/O)c2ccccc2)C1c1ccccc1[N+](=O)[O-]` (stereo unspecified), the displacement was determined as 11.3%.

As to `Cc1cccc(NC(=O)CC2S/C(=N\N=C\c3cccc(O)c3)NC2=O)c1C` (stereo unspecified), the displacement amounted to 8.3%.

Turning to `COc1ccccc1CNCc1cc(OC)c(O)c(OC)c1`, the displacement is -6.1%.

For `O=C(NC(NC(=S)Nc1ccc(Cl)c(Cl)c1)C(Cl)(Cl)Cl)c1cccc([N+](=O)[O-])c1` (stereo unspecified), the displacement was -7.9%.

In the case of `COc1ccc(/C=C/C(=O)N2CCC(CN3C(=O)c4cccc5cccc(c45)C3=O)CC2)cc1OC`, the displacement was found to be 21.3%.

On to `CC1=C(C(=O)OCC2CCCO2)C(c2c(F)cccc2Cl)C2=C(CC(C)(C)CC2=O)N1` (stereo unspecified), for which the displacement worked out at 10.8%.

As for `CCCCNC(=O)c1ccc(C(=O)NCCCC)cc1`, the displacement is -7.2%.

As to `O=C(c1cccc(C(=O)N2CCN(c3cccc(Cl)c3)CC2)c1)N1CCN(c2cccc(Cl)c2)CC1`, the displacement was -8.7%.

`C=CCOc1cc(Br)c(/C=C2\C(=O)NC(=O)N(c3ccc(C)cc3)C2=O)cc1OC`: the displacement was -1.5%.

For `CCOc1ccc(NS(=O)(=O)c2ccc(OC)c(OC)c2)cc1`, the displacement is 6.6%.

With `CC(C)(C)c1ccccc1OCCCCn1ccnc1`, the displacement was found to be 13.9%.

With `Cc1ccc(C)c(OCC(O)CN2CCN(Cc3ccccc3)CC2)c1` (stereo unspecified), the displacement was -4.6%.

Take `COc1ccc2[nH]cc(CCC(=O)O)c2c1`: the displacement turned out to be 9.5%.

For `C(=NN1CCN(Cc2ccccc2)CC1)c1ccncc1`, the displacement is -6.7%.

With `CC(C)CCNC(=O)c1ccc(Cl)c(Cl)c1`, the displacement is -2.8%.

For `CC1(C(=O)O)CCC(C(=O)NC2CCCCC2)C1(C)C` (stereo unspecified), the displacement was -6.2%.

Turning to `COc1ccc(-c2noc(-c3ccc(Br)cc3)n2)cc1`, the displacement is 13%.

As to `CCOc1cc(/C=c2\sc3nc4ccccc4n3c2=O)ccc1OCCOc1ccc(Br)cc1`, the displacement came out at 19%.

Take `CN(C)S(=O)(=O)c1ccc(C(=O)Nc2ccc(Cl)cc2)cc1`: the displacement is 6.6%.

As to `Cc1ccc(NC(=S)NC2CC(C)(C)NC(C)(C)C2)cc1`, the displacement came out at 8.5%.

Take `O=C1NC(=O)C(=Cc2cc([N+](=O)[O-])cc(Br)c2O)C(=O)N1`: the displacement is 19.7%.

For `O=C(O)C(C(=O)O)C1c2ccccc2Sc2ccccc21`, the displacement turned out to be 6.7%.

With `COc1cccc(/C=C2/SC(=S)N(CCC(=O)Nc3ccc(O)cc3)C2=O)c1`, the displacement was found to be 7.2%.

With `Cc1cc(NC(=O)CN2C(=O)S/C(=C\c3ccccc3)C2=O)no1`, the displacement was -5.7%.

With `COCCNC(=O)C(=O)NCCc1ccc(OC)cc1`, the displacement was -15.8%.

With `O=C(CC(c1ccccc1)c1ccccc1)Nc1nc2ccccc2s1`, the displacement was -10.3%.

Turning to `O=C1NC(=O)/C(=C\c2ccc(O)c(Cl)c2)N1`, the displacement came to 13.3%.

With `COc1cccc(/C=C(\C#N)c2nc(-c3cccs3)cs2)c1`, the displacement was -9.3%.

As to `CS(=O)(=O)N(CC(=O)O)c1ccccc1Cl`, the displacement stood at 0.7%.

Consider `C#CC(C)(C)NC(=O)CN(c1ccc(C)cc1)S(=O)(=O)c1ccc(F)cc1`, for which the displacement stood at 5.5%.

For `CCc1ccc(NC(=O)CSc2nnc(-c3ccco3)n2-c2ccccc2)cc1`, the displacement turned out to be 14.1%.

For the molecule `O=C(COc1c(Br)cc(Br)cc1Br)N/N=C/c1ccc(O)c([N+](=O)[O-])c1`, the displacement is 8.9%.

On to `CCOC(=O)c1sc2nc(C)n(/N=C/c3ccc4c(c3)OCO4)c(=O)c2c1C`, for which the displacement was -1.7%.

As for `CCOC(=O)C1=C(O)/C(=C/c2ccc(N(C)C)cc2)SC1=Nc1cccc2ccccc12`, the displacement turned out to be 168%.

As for `Cc1ccc2nc(NC(=O)CSc3nc(C)cc(=O)[nH]3)sc2c1`, the displacement is 10.7%.

`Cc1ccc(NC(=O)C(=O)/C=C(/O)c2ccc(Br)cc2)cc1`: the displacement was -6.8%.

As for `Cc1c(NC(=O)c2cnn3c2NC(c2cccs2)CC3C(F)(F)F)c(=O)n(-c2ccccc2)n1C` (stereo unspecified), the displacement is -2.2%.

As for `CCOC(=O)C(C(=O)OCC)C(C)C#CCN(CC)CC` (stereo unspecified), the displacement is 0.8%.

Regarding `Cc1ccc(/C(O)=C2\C(=O)C(=O)N(c3ccc(O)cc3)C2c2ccc([N+](=O)[O-])cc2)cc1` (stereo unspecified), the displacement is -9.6%.

Regarding `NS(=O)(=O)c1cccc(C(=O)Nc2ccccc2)c1`, the displacement is -11.1%.

As for `CCN(CC)CCNC(=O)c1ccccc1C(=O)c1ncc[nH]1`, the displacement is -3.1%.

Turning to `COc1ccc(CCNC(=O)C(=O)Nc2cc(C)cc(C)c2)cc1OC`, the displacement came to 12.2%.

As to `COc1ccc(NC(=O)C(=O)NCC2CCCO2)cc1Cl` (stereo unspecified), the displacement worked out at 7.1%.

`CCC(C)c1ccc(NC(=O)c2oc3ccccc3c2C)cc1` (stereo unspecified): the displacement was -10.5%.

As to `CN1CCN(C(=O)C(=O)Nc2cccc3ccccc23)CC1`, the displacement was -2.6%.

`N#CC1=C(N)OC2=C(C(=O)CC(c3ccccc3)C2)C1Cc1ccccc1` (stereo unspecified): the displacement was determined as 6%.

As to `CC1=NN(c2cccc(C(F)(F)F)c2)C(=O)/C1=C/c1ccc(N(C)C)cc1`, the displacement was 19.4%.

For `COc1cccc(/C=C2\SC(=S)N(NC(=O)c3ccc([N+](=O)[O-])cc3)C2=O)c1`, the displacement was 0%.

As for `COc1ccc(CN2CCN(C(=O)CC(C)C)CC2)c(OC)c1OC`, the displacement was -16.4%.

Take `COc1ccc(NC2CC(=O)N(c3ccccc3F)C2=O)cc1` (stereo unspecified): the displacement is -2.3%.

On to `CC1(C)CC(=O)C(CCC#N)(CCC#N)C(=O)C1`, for which the displacement is 20.4%.

For the molecule `CCCN1C(=O)c2ccccc2NC1c1ccccc1F` (stereo unspecified), the displacement is 8.3%.

On to `N/C(=N\OC(=O)c1ccc(F)cc1)c1ccc(Cl)cc1`, for which the displacement amounted to 0.4%.

For the molecule `COc1ccc2c(c1)C(C)CC(C)(C)N2C(=O)c1sc2cc([N+](=O)[O-])ccc2c1Cl` (stereo unspecified), the displacement is -20.3%.

As to `CCC1=NN(C(=O)c2cccc([N+](=O)[O-])c2)C(O)(c2ccncc2)C1` (stereo unspecified), the displacement was -18.8%.

For the molecule `CCn1c(O)c(N=NC(=O)c2ccccc2Cl)c2ccccc21`, the displacement is -5.3%.

For `O=[N+]([O-])c1cccc(-c2noc(CCc3ccccc3)n2)c1`, the displacement amounted to 12.5%.

Turning to `COC(=O)c1ccccc1NC(=O)CN(c1ccccc1)S(=O)(=O)c1ccccc1[N+](=O)[O-]`, the displacement was found to be 15.9%.

Values taken from PubChem BioAssay AID1240 (Sanford-Burnham Center for Chemical Genomics, 2008).
